In the antibiotic and cytotoxicity screens of Wong et al. (2023):
The list shows a part of the results.

Tests used:
HSkMC = human skeletal muscle cells; assay: cytotoxicity call (relative viability < 0.9); conditions: 10 µM
HepG2 = assay: cytotoxicity call (relative viability < 0.9); conditions: 10 µM
S. aureus RN4220 = assay: growth inhibition call (relative growth <= 0.2); conditions: 50 µM

Compound | cytotoxicity call (HSkMC) | cytotoxicity call (HepG2) | growth inhibition call (S. aureus RN4220)
C[C@H](CO)N1C[C@H](C)[C@H](CN(C)C(=O)Nc2ccc(C(F)(F)F)cc2)Oc2ccc(NC(=O)NC3CCCCC3)cc2C1=O | inactive | active | inactive
CO[C@H]1CN(C)C(=O)c2cc(NC(C)=O)ccc2OC[C@@H](C)N(S(=O)(=O)c2cn(C)cn2)C[C@@H]1C | inactive | inactive | inactive
C[C@H](CO)N1C[C@H](C)[C@@H](CN(C)S(=O)(=O)c2cn(C)cn2)Oc2ccc(NS(=O)(=O)c3ccc(F)cc3)cc2C1=O | inactive | inactive | inactive
c1ccc(COCc2ccccc2)cc1 | inactive | inactive | inactive
C[C@@H]1CN([C@H](C)CO)C(=O)Cc2cc(NC(=O)CCN3CCOCC3)ccc2O[C@H]1CN(C)C(=O)Nc1ccccc1 | inactive | inactive | inactive
COc1ccc(NC(=O)N(C)C[C@H]2OCCCC[C@H](C)Oc3ccc(NC(=O)C4CCCCC4)cc3C(=O)N([C@H](C)CO)C[C@H]2C)cc1 | inactive | inactive | inactive
C1CN(C2CCSCC2)CCN1 | inactive | inactive | inactive
O=C1C(=Cc2cccs2)CCCC1=Cc1cccs1 | inactive | inactive | inactive
C[C@H]1CCCCO[C@@H](CN(C)S(=O)(=O)c2ccccc2)[C@@H](C)CN([C@@H](C)CO)C(=O)c2cc(NC(=O)CCC(F)(F)F)ccc2O1 | inactive | inactive | inactive
O=[N+]([O-])c1ccc(NCCO)c(OCCO)c1 | inactive | inactive | inactive
CCOC(=O)c1cc2c(c(-c3cccc(Br)c3)n1)[C@@H](CCO[Si](C)(C)C(C)(C)C)N(S(=O)(=O)C(C)(C)C)C2 | inactive | inactive | inactive
COc1ccc(Cl)cc1C(=O)NCCc1ccc(S(=O)(=O)NC(=O)NC2CCCCC2)cc1 | inactive | inactive | inactive
C[C@H](O)C#Cc1ccc2c(c1)O[C@@H](CN(C)C(=O)c1ccncc1)[C@H](C)CN([C@H](C)CO)S2(=O)=O | inactive | inactive | inactive
COc1ccc(NC(=O)Nc2ccc3c(c2)C(=O)N([C@H](C)CO)C[C@H](C)[C@@H](CN(C)Cc2ccc(C(=O)O)cc2)OCCCC[C@@H](C)O3)cc1 | inactive | inactive | inactive
Cc1noc(C)c1NC(=O)Nc1ccc2c(c1)C(=O)N([C@@H](C)CO)C[C@H](C)[C@H](CN(C)C(=O)Nc1cccc3ccccc13)O2 | inactive | inactive | inactive
C[C@@H]1CN([C@H](C)CO)S(=O)(=O)c2ccc(C#CC(C)(C)O)cc2O[C@H]1CN(C)Cc1ccc(F)cc1 | inactive | inactive | inactive
COc1ccc(S(=O)(=O)Nc2ccc3c(c2)CC(=O)N([C@H](C)CO)C[C@@H](C)[C@H](CN(C)Cc2ccc(C(=O)O)cc2)O3)cc1 | inactive | inactive | inactive
C/C=C/c1cnc2c(c1)C(=O)N([C@H](C)CO)C[C@H](C)[C@H](CN(C)S(=O)(=O)c1ccc(OC)cc1)O2 | inactive | inactive | inactive
C[C@@H]1CN([C@@H](C)CO)C(=O)c2cc(NC(=O)Cn3cnnn3)ccc2O[C@@H]1CN(C)C(=O)Nc1ccccc1 | inactive | inactive | inactive
CCCCc1nc(Cl)c(CO)n1Cc1ccc(-c2ccccc2-c2nnn[nH]2)cc1 | inactive | inactive | inactive
O=C(C[C@@H]1C=C[C@H](NC(=O)c2cccnc2)[C@@H](CO)O1)NCc1ccncn1 | inactive | inactive | inactive
C[C@H](CO)N1C[C@H](C)[C@H](CN(C)S(=O)(=O)c2ccccc2)Oc2ncc(C#CC(C)(C)O)cc2C1=O | inactive | inactive | inactive
C[C@@H]1CN([C@H](C)CO)C(=O)c2cc(-c3cccc(C(=O)N(C)C)c3)cnc2O[C@@H]1CN(C)C(=O)Cc1ccccn1 | inactive | inactive | inactive
Cc1noc(C)c1S(=O)(=O)N(C)C[C@@H]1Oc2ccc(NS(=O)(=O)c3cn(C)cn3)cc2CC(=O)N([C@@H](C)CO)C[C@@H]1C | inactive | inactive | inactive
COc1ccc2c3c([nH]c2c1)[C@H](CO)N(C[C@]13CCN(CCc2ccccc2)CC1)C(=O)CN1CCOCC1 | inactive | inactive | inactive
CSc1ccccc1CN | inactive | inactive | inactive
COc1cc(NS(=O)(=O)c2ccc(N)cc2)nc(OC)n1 | inactive | inactive | inactive
Cc1csc2ccc(F)cc12 | inactive | inactive | inactive
